Here are results for 42 molecules from ChEMBL document CHEMBL5308541, “MAIP: An Open-Source Tool to Enrich High-Throughput Screening Output and Identify Novel, Druglike Molecules with Antimalarial Activity” (ACS Med Chem Lett, 2023).

Screen size: about 150,000 compounds; about 540 (0.36%) showed an effect of 50% or more. The list shows a part of the results.

As usually defined, the % Inhibition is the relative decrease from the control value, in per cent.

The subject of this experiment is Plasmodium falciparum. Nature of the experiment: Primary screen in NF54 nanoGlo assay, in single point, at 2uM, 72h; a lower Z score goes with more inhibition. The experiment is classed as functional, Erythrocyte. The conditions noted are these: timepoint 72 hour.
As for `c1ccc(-n2cnc3c(N[C@H]4CCNC5(CCC5)C4)ncnc32)cc1`, the “% Inhibition” value is recorded as 3% and the Z score was -0.61.
For `O=C1c2cccc3cccc(c23)C(=O)N1Cc1nnc(Nc2ccccc2)s1` the same measures were -10% and 1.53.
For `CCN1C2CCC1CC(NCc1cccc(CN3CCCC3)c1)C2` (centres undefined) the same measures were 21% and -3.2.
On to `COc1ccc2[nH]c(CN[C@H]3CCOC3)cc2c1`, for which the “% Inhibition” value is on record as -9% and the Z score was 1.96.
As to `Cc1ccccc1-c1cccc(CN2CCC[C@H](N3CCC(CO)CC3)C2)c1`, the “% Inhibition” value is on record as -7% and the Z score was found to be 1.2.
`Cc1c(CNCCN2CCCC[C@@H]2CO)[nH]c2c(Cl)cccc12`: the “% Inhibition” value was -7% and the Z score is 1.22.
For `CC(C)[C@H](CNC(=O)Nc1ccccc1CS(C)(=O)=O)c1ccnn1C` the same measures were 21% and -3.65.
`CN(Cc1ccc2ncccc2c1)C(=O)NCC1CCN(C2CCCC2)CC1`: the “% Inhibition” value worked out at 3% and the Z score is listed as -0.57.
In the same order, the values of `COCCOc1ccccc1C(=O)N(C)[C@@H](Cc1ccccn1)C(C)(C)C` are 6% and -1.22.
In the case of `CC(C)(C)OC(=O)N1C2CCC1CC(CNc1ncncc1C#N)C2` (centres undefined), the “% Inhibition” value is on record as 4% and the Z score is -0.67.
For `C[C@@H](CN1CCOCC1)C(=O)N(C)Cc1ccc2ncccc2c1` the same measures were -9% and 1.58.
As for `Oc1cccc([C@@H]2CN(c3cncc(OC4CCCCC4)n3)CCO2)c1`, the “% Inhibition” value was -5% and the Z score is 0.83.
In the case of `CN1CCC(N(C)CCN(C)C(=O)NCc2ccnc(-n3ccnc3)c2)CC1`, the “% Inhibition” value was found to be 9% and the Z score was -1.99.
For `Cc1ccc(F)c(CNC(=O)N2CC[C@@]3(CN(C)C(=O)CO3)C2)c1F` the same measures were 3% and -0.73.
In the same order, the values of `COCCN(Cc1cc2ccc(Cl)cc2nc1-c1cccc(C)c1)C(=O)c1ccc2c(c1)OCO2` are -6% and 1.04.
For the molecule `NC(=O)NCC(=O)N1CCOC2(CCN(C(=O)CCC3CCCC3)CC2)C1`, the “% Inhibition” value was -2% and the Z score worked out at 0.37.
In the same order, the values of `CCc1cc(NC2CCN(c3ncccc3C#N)CC2)nc(N2CCOCC2)n1` are -9% and 1.55.
In the same order, the values of `COc1ccc2c(N3CC[C@H](CN4CCCC4)C3)ccnc2c1` are 91% and -15.93.
Regarding `CC(CC(F)F)C(=O)NCC[C@H](C)Nc1cnc2cc(F)c(F)cc2n1` (some centres undefined), the “% Inhibition” value is -9% and the Z score was found to be 1.51.
For `Fc1ccc(Oc2ccnc(Nc3ccc(NC4CCOCC4)cc3)n2)cc1`, the “% Inhibition” value is 5% and the Z score is given as -0.92.
For `O=C(Nc1nc2ccccc2n1C1CCCC1)c1ccc(Cn2ccnc2)cc1` the same measures were 4% and -0.96.
Consider `O=C(CCCc1ccccc1)Nc1cccc(N2CCC(NCCN3CCOCC3)CC2)c1`, for which the “% Inhibition” value was -12% and the Z score amounted to 2.11.
In the same order, the values of `Cc1nc(NC2COCC2N2CCN(C)CC2)nc2c1CCCC2` (centres undefined) are -8% and 1.16.
For `CNC(=O)c1ccc(C(=O)Nc2nc(C3(C)CC3)ns2)cn1` the same measures were 23% and -4.92.
In the same order, the values of `Cn1c(NC(=O)Cc2c[nH]c3ncccc23)nc2cc(Cl)c(Cl)cc21` are -4% and 0.82.
On to `CN1CCN(C(=O)c2ccc(CNc3cc(-n4cccn4)nc(N)n3)cc2)CC1`, for which the “% Inhibition” value was 1% and the Z score is -0.13.
Regarding `Cc1ccc(NCCCNc2cc(C3CC(N)C3)nc(N)n2)nc1` (centres undefined), the “% Inhibition” value worked out at 6% and the Z score was -1.24.
With `CCNc1ccc(Nc2nc(C(F)(F)F)ns2)cn1`, the “% Inhibition” value was 0% and the Z score was 0.09.
For `O[C@@H](CNc1nccc(-n2cccn2)n1)c1ccc(F)c(F)c1`, the “% Inhibition” value was -4% and the Z score came to 0.68.
Regarding `COCC[C@H]1CCCN(C(=O)c2cccc(-c3cccc4[nH]ccc34)c2)C1`, the “% Inhibition” value stood at 1% and the Z score is recorded as -0.14.
In the same order, the values of `COC(=O)c1ccc(CN2CCCn3nccc32)cc1` are -4% and 0.65.
For `CC(C)N1CC[C@H](N2CCCN(c3cncc(F)c3)CC2)C1=O` the same measures were -9% and 1.32.
For `CCN1C2CCC1CC(NCC(O)c1cccc(C)c1)C2` (centres undefined) the same measures were 7% and -1.24.
As to `CCN1CCC(CNc2ncnc3cccc(OC)c23)CC1`, the “% Inhibition” value turned out to be 16% and the Z score is listed as -2.91.
In the same order, the values of `Cc1cc(NCc2cnc3ccc(Br)cn23)cc(N2CCN(C)CC2)c1` are -1% and 0.21.
For `CCc1nn(C)c(NC(=O)CN(C)Cc2ccc(C)cc2)c1C` the same measures were -2% and 0.37.
For the molecule `CCNS(=O)(=O)c1ccc(CC(=O)N[C@H]2CCCOc3cc(F)ccc32)cc1`, the “% Inhibition” value amounted to 0% and the Z score is recorded as -0.01.
Regarding `Cn1cc([C@H]2OCCC[C@@H]2NC2CCN(CCN3CCOCC3)CC2)cn1`, the “% Inhibition” value is reported as -4% and the Z score is listed as 0.77.
With `O=C(Nc1ccc(-c2cccc(F)c2)cc1)[C@@H]1CCCN1CCCn1ccnc1`, the “% Inhibition” value is listed as 16% and the Z score is on record as -2.37.
With `O=C1C[C@H](N2CCC(Nc3ccc4c(c3)OCO4)CC2)C(=O)N1c1ccccc1F`, the “% Inhibition” value is given as -4% and the Z score is 0.77.
For `CCC1CN(CC(O)CN2CCC(C)CC2)CCN1CC(C)O` (centres undefined), the “% Inhibition” value is reported as -7% and the Z score worked out at 1.31.
In the same order, the values of `C[C@H]1CN(C(=O)c2ccc3c(c2)CCC(=O)N3)Cc2cncnc21` are -6% and 1.
